# Measured values reported in PubChem BioAssay AID1671194 (National Center for Advancing Translational Sciences (NCATS), 2021).
# Out of some 140,000 compounds screened, about 240 (0.17%) were called active. The inconclusive results got no clear call from the source; some entries with a clear call stand among them for comparison. Calls follow the shape of the dose curve; as a rule, active = well fitted inhibition curve with a large enough effect; inconclusive = small, poorly fitted or top-dose-only effect; inactive = no such curve, though single readings can be large or run the other way. Potencies beside an inconclusive call are fits to weak or partial responses and may not hold up.
# Assay: Primary qHTS assay for inhibitors of alpha-synuclein gene (SNCA) expression; also: nearly all actives have a fitted effect of over 45% in size;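 as to activity change, negative = inhibition: plate controls were DMSO cells for no effect and cell-free wells for full effect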
# Details: HEK-293 SNCA-luciferase knock-in, luminescence, 24 h; activity change, negative = inhibition: at 57.2 µM (top of the series) unless noted
# Potency is read from the fitted curve at half-maximal effect; tags tell the direction and shape of the fitted curve.
Compound,Potency,"activity change, negative = inhibition"
CC(C)(O)CCc1cccc(C(=O)N2CC=C(c3ccc(F)cc3)CC2)c1,"inconclusive: 44.7 µM [inhibitor, single point]",
O=C1NC2(CCN(Cc3ccsc3)C2)COc2ccccc21 (configuration not stated),,inactive: 33.6% [at 87.6 µM]
Cc1ccc(S(=O)(=O)C(CNS(=O)(=O)c2cc(F)ccc2F)c2cccs2)cc1 (configuration not stated),"inconclusive: 39.8 µM [inhibitor, single point]",
O=C(CC1C(=O)NCCN1Cc1cccc(Oc2ccccc2)c1)NCc1ccco1 (configuration not stated),"inconclusive: 39.8 µM [inhibitor, single point]",
Cc1cccn2c(=O)cc(CN3CCC4(CC3)C(C(=O)O)CC(=O)N4C)nc12 (configuration not stated),,inactive: -13.6%
CC[C@H](CC#N)OC(=O)N[C@@H](C)c1cccc(NC(=O)Nc2ccc(-c3cnco3)c(OC)c2)c1,"inconclusive: 10.8 µM [inhibitor, full curve, poor fit]",
C#Cc1cccc(Nc2ncnc3cc(OCCOC)c(OCCO)cc23)c1,"inconclusive: 21.5 µM [inhibitor, partial curve, poor fit]",
COc1ccc(-c2nc3sc(CCNC(=O)c4ccc(Br)o4)c(C)n3n2)cc1,,inactive: 23.6%
Cc1ccc(C2Cn3cnc(C(=O)N4CCC(C(=O)NCc5cccs5)CC4)c3CO2)cc1 (configuration not stated),,inactive: 3.54%
COc1ccc(NC(=O)C(=O)NCCc2csc3nc(-c4ccccc4F)nn23)cc1OC,"inconclusive: 3.16 µM [inhibitor, single point]",
COc1cccc(N2C(=O)NC(=NC3CCCCC3)C23CCN(C(=O)c2ccccc2OC)C3)c1 (configuration not stated),,inactive: 14.6%
COc1ccc(CN2C=C(C(=O)OCc3noc(-c4ccccc4F)n3)C(C)=NS2(=O)=O)cc1,"inconclusive: 15.8 µM [inhibitor, single point]",
CCN1CCN(c2oc(-c3ccc(COc4ccccc4C)o3)nc2C#N)CC1,"inconclusive: 39.8 µM [inhibitor, single point]",
Cc1csc(NC(=O)c2nc3c(o2)CCN(Cc2c(C)noc2C)CC3)n1,,inactive: 29.8% [at 87.6 µM]
Oc1c(C(Nc2ccccn2)c2ccccc2F)ccc2cccnc12 (configuration not stated),"inconclusive: 39.8 µM [inhibitor, single point]",
CCCNC(=O)c1ccc2c(c1)nc1n2CCCCC1,"inconclusive: 11.2 µM [inhibitor, single point]",
CN1CCN(c2ncnc3c2cnn3-c2cccc(Cl)c2)CC1,"inconclusive: 39.8 µM [inhibitor, single point]",
CCCCCC(=O)N[C@H]1C[C@@H](Cc2cc(COc3ccccc3)on2)C1(C)C,"inconclusive: 56.2 µM [inhibitor, partial curve, poor fit]",
CC(C)NC[C@H]1O[C@H](Cc2cc(CN(C)Cc3ccccc3)on2)CC[C@@H]1O,"inconclusive: 12.6 µM [inhibitor, single point]",
COc1ccc(C(Nc2ccccn2)c2ccc3ccc(C)nc3c2O)cc1C (configuration not stated),"inconclusive: 10 µM [inhibitor, partial curve]",
O=C(Cc1ccc(F)cc1)NC1CCN(c2nccc(Nc3ccccc3F)n2)CC1,"inconclusive: 5.62 µM [inhibitor, full curve, poor fit]",
O=C(NCCc1ccccc1)c1ccc2c(c1)N(Cc1ccc(F)cc1)C(=O)CS2,"inconclusive: 15.8 µM [inhibitor, partial curve, poor fit]",
CS(=O)(=O)N(Cc1cccnc1)C1CN(C(=O)c2ccc3cc[nH]c3c2)C1,,inactive: -5.76%

Compound,Potency,"activity change, negative = inhibition"
CCC(C)NC(=O)C(NC(=O)c1ccc(C)cc1)C1CCN(C(=O)c2cccc(F)c2)CC1 (configuration not stated),,inactive: 1.39%
COc1cccc(CNc2cc(Cl)nc3ccnn23)c1,,inactive: -5.07% [at 87.6 µM]
C#CCN(CC=C)Cc1cnc(S(=O)(=O)CC2CCCCC2)n1CCOC,"inconclusive: 15.8 µM [inhibitor, partial curve, poor fit]",
CC(=O)N1c2ccccc2C(=O)C1N1CCN(c2cccc(Cl)c2)CC1 (configuration not stated),"inconclusive: 39.8 µM [inhibitor, single point]",
CC(NC(=O)Cn1c(=O)oc2cc(S(=O)(=O)N3CCCCCC3)ccc21)c1ccccc1 (configuration not stated),"inconclusive: 5.62 µM [inhibitor, single point]",
Cc1ccc(C)c(C(=O)N2CCN(C(=O)c3nnn4c3COC(c3ccccc3)C4)CC2)c1 (configuration not stated),,inactive: 8.99%
O=S(=O)(NCCc1noc(-c2ccccc2)n1)c1ccc(Cl)cc1,"inconclusive: 22.4 µM [inhibitor, single point]",
C(=C\c1ccccc1)/CN1CCN(Cc2nc(COc3ccccc3)no2)CC1,,inactive: -9.14%
O=C(c1ccco1)N1c2ccccc2CC1c1nnc(C2CCOCC2)o1 (configuration not stated),"inconclusive: 7.08 µM [inhibitor, single point]",
COc1ccc(-n2nc3c(N4CCC(C(=O)NCc5ccccc5C)CC4)nnc(C)c3c2C)cc1,"inconclusive: 20 µM [inhibitor, partial curve, poor fit]",
CN(C)[S+](=O)([O-])c1ccc2c(c1)OCCN(Cc1cc(F)ccc1F)C2,,inactive: -23.4% [at 87.6 µM]
Cc1nc(C)c(C(=O)NCC23CCCC=C2N(CC2CC2)C(=O)CC3)s1 (configuration not stated),"inconclusive: 28.2 µM [inhibitor, single point]",
COCCNC(=O)C[C@@H]1c2nc(NC(=O)c3ccnc(Cl)c3)sc2C[C@@H]2[C@](C)(CO)[C@H](O)CC[C@]21C,"inconclusive: 6.31 µM [inhibitor, single point]",
Cn1cc(C(=O)N2CCC3(CC2)CN(c2ncccn2)CC3CO)cn1 (configuration not stated),,inactive: 24.1%
C#CCNC(=O)[C@@H]1Cc2cn(Cc3nccn3C)c3cccc(c23)[C@H](CC(C)C)N1,"inconclusive: 56.2 µM [inhibitor, single point]",
COc1cccc(COC2CN(C(=O)CCn3nccc3C)CC(=O)N(Cc3ccccn3)C2)c1 (configuration not stated),"inconclusive: 17.8 µM [inhibitor, partial curve, poor fit]",
COc1cccc(NC(=O)CN2C(=O)c3ccccc3Sc3ncccc32)c1,"inconclusive: 6.31 µM [inhibitor, single point]",
Cc1ccc(-c2ccc3nnc(CNC(=O)c4cccn4C)n3n2)cc1C,"inconclusive: 25.1 µM [inhibitor, single point]",
Cc1ccc(-n2nc(C)c3c(C(F)(F)F)cc(-c4cccnc4)nc32)cc1Cl,"inconclusive: 22.4 µM [inhibitor, single point]",
Cc1cc2c(cc1S(=O)(=O)Nc1cc(C(F)(F)F)cc(C(F)(F)F)c1)OCC(=O)N2,"inconclusive: 39.8 µM [inhibitor, single point]",
Cc1ccc(-c2ccc3nnc(CNC(=O)COc4ccc(F)cc4)n3n2)cc1C,,inactive: 8.14%
CC(C)N1C(=O)OCC12CCN(C(=O)c1ccc(Oc3ccccc3)cc1)C2 (configuration not stated),"inconclusive: 5.01 µM [inhibitor, single point]",
O=C(c1ccccc1F)N1CCC2(CC1)C(=O)Nc1ccccc12,"inconclusive: 8.91 µM [inhibitor, single point]",

Compound,Potency,"activity change, negative = inhibition"
O=C(NCC1CCCCCC1)[C@@H]1CCCN1c1nccc(Nc2ccccc2Cl)n1,"inconclusive: 10 µM [inhibitor, partial curve, poor fit]",
CN(C)C[C@@H]1CN(S(C)(=O)=O)C[C@H]1NC(=O)c1ccc(Cl)s1,,inactive: 5.27%
CC(C)C[C@@H]1N[C@H](C(=O)NCC2CC2)Cc2cn(Cc3ccncc3)c3cccc1c23,"inconclusive: 31.6 µM [inhibitor, single point]",
Cc1cc(C(=O)N2CCC3(CC2)NCCc2c3[nH]c3ccccc23)n(C)n1,"inconclusive: 25.1 µM [inhibitor, partial curve, poor fit]",
COCCn1c(=O)c(C(=O)NCc2cccc(F)c2)nc2cccnc21,,inactive: -3.2%
CN(C)CCOCC1(C)COc2ccc(C(=O)Nc3cccc(Cl)c3)cc2N1 (configuration not stated),,inactive: 158% [at 87.6 µM]
CS(=O)(=O)c1cnc(NC2CCCC2)nc1C1CCCNC1 (configuration not stated),,inactive: 85.2%
CCC(NC(=O)c1ccc2nc(-c3ccc(F)cc3)cn2c1)c1ncc(C)[nH]1 (configuration not stated),,inactive: 53%
COc1ccc(NC(=O)Cn2c(N3CCc4ccccc4C3)nc(C)cc2=O)cc1Cl,"inconclusive: 39.8 µM [inhibitor, single point]",
CCn1ncc(C(=O)N2CCC(C3CCN(S(C)(=O)=O)CC3)C2)c1C (configuration not stated),"inconclusive: 39.8 µM [inhibitor, single point]",
COc1cc2c(cc1OC)CN(C1CCCN(Cc3c(O)cccc3OC)C1)CC2 (configuration not stated),"inconclusive: 0.708 µM [inhibitor, single point]",
Cc1ccc(-n2cnnn2)cc1S(N)(=O)=O,"inconclusive: 7.94 µM [inhibitor, single point]",
c1c[nH]c(-c2nc3ncccc3[nH]2)c1,inactive,
COc1ccc(-c2nn(-c3ccccc3)cc2CN2CCCC(C)(O)C2)c(F)c1 (configuration not stated),,inactive: 7.22%
COC(=O)C(CCSC)Nc1ncnc2onc(-c3ccc(F)cc3)c12 (configuration not stated),"inconclusive: 3.55 µM [inhibitor, single point]",
CC1(C)[C@H]2CC[C@@H](CNC(=O)c3ccc(Cl)cc3)[C@@H]1C2,"inconclusive: 17.8 µM [inhibitor, single point]",
c1ccc2c(c1)CCCN2CCCNc1ncncn1,,inactive: 9.39%
COc1ccc2[nH]c3c(c2c1)CCNC31CCN(Cc2ccc(C)o2)CC1,"inconclusive: 39.8 µM [inhibitor, single point]",
Cc1cnc(CNc2ccnc(-c3cccc(C#N)c3)n2)cn1,"inconclusive: 3.16 µM [inhibitor, partial curve, poor fit]",
COc1ccccc1CNC(=O)c1ccc2nnc(-c3ccc(Cl)cc3)n2c1,,inactive: -9.43%
Cc1nn2c(c1-c1ccccc1[S+](C)(=O)[O-])N(C(=O)c1ccccc1)CCC2,,inactive: -21.6% [at 87.6 µM]
